This is an account of results in the RNAGym collection of RNA variant scans (doi:10.7554/elife.90254).

The labels stand for the following.
B1: LINE1-full (parent)
chain: UACGUAGGUGGUUUUCCCCUGAUAGUGCUAAGGGGGCCUGGAAGUUUGGACUGGGCAGAGCUCAACACAGCGUGGCAAAGUGGCUGUGGCUAGACUGCCUCUCUGGAUUCCUCGUCACUCAGCAGGGCAUCUCUGAGAGAAAUGCC

Read counts are not given, so values of variants with three or more changes are uncertain.

Variants of B1 are the subject of this series. Kind of series: self-cleavage, relative activity (ratio to wild type); higher = more cleavage; in vitro, sequencing; the parent is a self-cleaving ribozyme.
On to UACGUAGGUGGGUUUCCCCUGAUAGUGCUAAGGGGGCCUGGAAGUUCGGACUGGGCAGAGCUCAACACAGCGUGGCAUAGUGGCUGUGGCUAGACUGCCUCUCUGGAUCCCUCGCCACUCAGCAGGGCAUCUCUGAGAGAAAUGCC [U12G U47C A78U U109C U115C], for which the self-cleavage amounted to 0.

UACGUAGGUGGGUUUCCCCUGAUAGUGCUAAGGGGGCCUGGAAGUUUGGACCGGGCAGAGCUCAUCACAGCGUGGCAAAGUGGCUGUGGCUAGACUGCCUCUCUGGAUUCCUCGUCACUCAGCAGGGCAUCUCUGAGAGAAAUGCC [U12G U52C A65U]: the self-cleavage came to 0.5. Next, UACGUAGGUGGGUUUCCCCUGAUAGUGCUAAGGGGGCCUGGAAGUUUGGACUGGGCAGAGCUCAACACAGCGUGGCAAAGUGGCUGUGGCUAGACUGCCUCUCUGGAUCCCUCGUCACUCAGCAGGGCACCUCUGAGAGAAAUGCC [U12G U109C U130C]: 1.45; UACGUAGGUGGGUUUCCCCUGAUAGUGCUAAGGGGGCCUGGAAGUUUGGACUGGGCAGAGCCCAACACAGCGUGGCAAAGUGGCUGUGGCUAGACUGCCUCUCUGGAUUCCUCGUCACUCCGCAGGGCAUCUCUGAGAGAAAUGCC [U12G U62C A121C]: 0; UACGUAGGUGGGUUUCCCCUGAUAGUGCUAAGGGGGCCUGGAAGUUUGGACUGGGCAGAGCUCAACACAGCGUGGCAAAGUGGCUGUGGCUAGACUGCCUCUCUGGAUCCCUCGUCACUCAGCAAGGCAUCUCUGAGAGAAAUGCC [U12G U109C G125A]: 1.37. For UACGUAGGUGGGUUUCCCCUGAUAGUGCUAAGGGGGCCUGGAAGUUUGGACUGGGCAGAGCCCAACACAGCGUGGCAAAGUGGCUGUGGCUAGACUGCCUCUCUGGAUUCCUCGUCACUCAGCGGGGCAUCUCUGAGAGAAAUGCC [U12G U62C A124G] the value was 0.13; for UACGUAGGUGGGUUUCCCCUGAUAGUGCUAAGGGGGCCUGGAAGUUUGGACUGGGCAGAGCUCAACACAGCGUGGCAAAGUGGCUGUGGCUAGACUGCCUCUCUGGAUUCCCCGUCACUCAGCAGGGCAUCUCUGAGAGAAACGCC [U12G U112C U143C], 1.43.

UACGUAGGUGGGUUUCCCCUGAUAGUGCUAAGGGGGCCUGGAAGUUUGGACUGGGCAGAGCUCAACACAGCGUGGCAAAGUGGCUGUGGCUAGACUGCCUCUCCGGAUUCCUCGUCACUCAGCAGGGCAUCUCUGAGAGAAAAGCC [U12G U104C U143A]: the self-cleavage worked out at 1.47.

For the variant UACGUAGGUGGGUUUCCCCUGAUAGUGCUAAGGGGGCCUGGAAGUUUGGACAGGGCAGAGCUCAACACAGCGUGGCAAAGUGGCUGUGGCUAGACUGCCUCUUUGGAUUCCUCGUCACUCAGCAGGGCAUCUCUGAGAGAAAUGCC [U12G U52A C103U], the self-cleavage worked out at 2.02. For UACGUAGGUGGGUUUCCCCUGAUAGUGCUAAGGGGGCCUGGAAGUUUGGACUGGGCAGAGCUCAACACAGCGUGGCAAAGUGGCUGUGGCUAGACUGCCUCUCUGGAUUCCUCGACACUCAGCAGGGCAUCUCUGAGAGAAAUUCC [U12G U115A G144U] the value was 1.69; for UACGUAGGUGGGUUUCCCCUGAUAGUGCUAAGGGGGCCUGGAAGUUUGGACUGGGCAGAGCCCAACACAGCGUGGCAAAGUGGCUGUGGCUAGACUGCCUCUCUGGAUUCCUCGUCACUCAGCAGGGCAUCUCUGAGAGGAAUGCC [U12G U62C A140G], 0.34.

With UACGUAGGUGGGUUUCCCCUGAUAGUGCUAAGGGGGCCUGGAAGUUUGGACUGGGCAGAGCUCAACACAGCGUGGCAAAGUGGCUGUGGCUAGACUGCCUCUCUGGAUCCCUCGUCACUCUGCAGGGCAUCUCUGGGAGAAAUGCC [U12G U109C A121U A136G], the self-cleavage amounted to 0.97. Next, UACGUAGGUGGGUUUCCCCUGAUAGUGCUAAGGGGGCCUGGAAGUUUGGACUGGGCAGAGCUCAACACAGCGUGGCAAAGUGGCUGUGGCUAGACUGCCUCUCUGGAUUCCUCGCCACUUGGCAGGGCAUCUCUGAGAGAAAUGCC [U12G U115C C120U A121G]: 2.58. For UACGUAGGUGGGUUUCCCCUGAUAGUGCUAAGGGGGCCUGGAAGUUUGGACUGGGCAGAGCUCAACACAGCGUGGCAAAGUGGCUGUGGCUAGACUGCCUCUCUGGAUUCCUCGCCACUCAGCAGGGCAUCUCUGAGAGAAUUGCC [U12G U115C A142U] the value was 1.36. As for UACGUAGGUGGGUUUCCCCUGAUAGUGCUAAGGGGGCCUGGAAGUUCGGACUGGGCAGAGCUCAACACAGCGUGGCAAGGUGGCUGUGGCUAGACUGCCUCUCUGGAUUCCUCGUCACUCAGCAGGGCAUCUCUGAGAGAAAUGCC [U12G U47C A79G], the self-cleavage came to 0. For UACGUAGGUGGGUUUCCCCUGAUAGUGCUAAGGGGGCCUGGAAGUUUGGACUGGGCAGAGCUCAACACAGCGUGGCAAAGUGGCGGUGGCUAGACUGCCUCUCUGGAUUCCUCGUCACUCAGCGGGGCAUCUCAGAGAGAAAUGCC [U12G U85G A124G U134A] the value was 0; for UACGUAGGUGGGUUUCCCCUGAUAGUGCUAAGGGGGCCUGGAAGUUUGGACUGGGCAGAGCUCAACACAGCGUGGCAAAGUGGCUGCGGCUUGACUGCCUCUCUGGAUUCCUCGACACUCAGCAGGGCAUCUCUGAGAGAAAUGCC [U12G U87C A92U U115A], 0.35; for UACGUAGGUGGGUUUCCCCUGAUAGUGCUAAGGGGGCCUGGAAGUUUGGACUGGGCAGAGCACAACACAGCGUGGCUAAGUGGCUGUGGCUAGACUGCCUCUCUGGAUUCCUCGUCACUCAGCAGGGCAUCUCUGAGAGAAAUGCC [U12G U62A A77U], 0.2. For UACGUAGGUGGGUUUCCCCUGAUAGUGCUAAGGGGGCCUGGAAGUUUGGACUGGGCAGAGCCCAACUCAGCGGGGCAAAGUGGCUGUGGCUAGACUGCCUCUCUGGAUUCCUCGUCACUCAGCAGGGCACCUCUGAGAGAAGUGCC [U12G U62C A67U U73G U130C A142G] the value was 0; for UACGUAGGUGGGUUUCCCCUGAUAGUGCUAAGGGGGCCUGGAAGUUUGGACUGGGCAGAGCUCAACACAGCGUGGCAAAGUGGCUGUGGCUAGACUGCCUCACUGGAUUCCUCGUCACUCAGCAGGGCAUCUCUGAGAGAAAUACC [U12G U102A G144A], 1.75.
